# Test results published in PubChem BioAssay AID504332 (National Center for Advancing Translational Sciences (NCATS), 2011).
# The campaign covered roughly 350,000 compounds. About 31,000 (8.9%) were called active. Inconclusive results, whose numbers are uncertain, are shown with a selection of clear calls. The call rests on the fitted dose curve; in most records, active means well fitted inhibition curve with a large enough effect; inconclusive means small, poorly fitted or top-dose-only effect; inactive means no such curve, though single readings can be large or run the other way. Potencies of inconclusive entries are doubtful fits and often do not repeat.
# Biological target: Histone-lysine N-methyltransferase EHMT2 (Homo sapiens) (UniProt Q96KQ7)
# Test: qHTS Assay for Inhibitors of Histone Lysine Methyltransferase G9a; further: nearly all actives have a fitted effect of over 75% in size
# Conditions: G9a H3K9 monomethylation, AlphaScreen, 2 h; activity, negative = inhibition: at 59 µM (top of the series) unless noted
# How it was run: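 Compounds were preincubated with 20 nM G9a for 15 min, after which biotinylated H3K9 peptide (500 nM) and SAM (20 uM) started a 2 h room-temperature reaction. Monomethylated product was quantified by antibody-based AlphaScreen chemiluminescence.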
# On the % scale 0 is the no-effect control and ±100 the full control effect; potency means the concentration at half of the fitted maximal effect; tags describe the fitted curve by direction and shape.
# Chain of UniProt Q96KQ7 (Q96KQ7 whole entry, looked up): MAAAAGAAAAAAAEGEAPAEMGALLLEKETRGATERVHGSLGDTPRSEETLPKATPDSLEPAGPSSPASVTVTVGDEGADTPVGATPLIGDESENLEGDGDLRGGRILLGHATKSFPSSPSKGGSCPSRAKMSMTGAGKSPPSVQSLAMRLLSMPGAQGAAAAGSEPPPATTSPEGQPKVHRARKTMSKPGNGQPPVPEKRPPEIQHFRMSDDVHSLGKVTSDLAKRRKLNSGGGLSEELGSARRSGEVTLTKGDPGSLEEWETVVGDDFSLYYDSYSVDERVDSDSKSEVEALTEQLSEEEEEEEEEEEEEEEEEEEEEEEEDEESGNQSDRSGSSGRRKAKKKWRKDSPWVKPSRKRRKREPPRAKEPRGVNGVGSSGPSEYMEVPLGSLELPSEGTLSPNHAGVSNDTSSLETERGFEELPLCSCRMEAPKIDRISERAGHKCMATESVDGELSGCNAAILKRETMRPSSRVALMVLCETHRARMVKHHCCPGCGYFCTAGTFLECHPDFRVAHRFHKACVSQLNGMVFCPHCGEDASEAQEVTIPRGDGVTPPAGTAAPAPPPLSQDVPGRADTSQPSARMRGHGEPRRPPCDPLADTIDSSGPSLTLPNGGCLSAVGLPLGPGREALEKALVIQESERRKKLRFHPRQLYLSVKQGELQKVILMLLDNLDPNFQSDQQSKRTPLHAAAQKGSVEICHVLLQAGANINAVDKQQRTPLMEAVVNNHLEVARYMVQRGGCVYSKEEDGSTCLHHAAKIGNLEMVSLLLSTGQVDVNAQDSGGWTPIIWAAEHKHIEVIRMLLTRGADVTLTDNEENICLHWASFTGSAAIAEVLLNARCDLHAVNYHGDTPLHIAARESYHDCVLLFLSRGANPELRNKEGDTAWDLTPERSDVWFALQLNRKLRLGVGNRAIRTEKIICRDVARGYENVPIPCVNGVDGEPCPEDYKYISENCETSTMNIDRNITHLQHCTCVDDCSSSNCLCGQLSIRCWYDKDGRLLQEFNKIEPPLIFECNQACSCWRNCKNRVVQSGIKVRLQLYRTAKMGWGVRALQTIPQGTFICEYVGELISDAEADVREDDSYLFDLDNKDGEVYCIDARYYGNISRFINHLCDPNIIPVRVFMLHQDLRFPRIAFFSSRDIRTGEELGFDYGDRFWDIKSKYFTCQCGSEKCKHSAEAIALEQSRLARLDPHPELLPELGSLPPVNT
SMILES,"activity, negative = inhibition",Potency
CCN1C(=O)N(CC)c2cccc3cccc1c23,inactive: 26.1% [at 102 µM],
CCN(CC)S(=O)(=O)c1cc(NC(=O)c2cc([N+](=O)[O-])ccc2N2CCOCC2)ccc1C,,"inconclusive: 15.8 µM [inhibitor, partial curve]"
CC1CCc2sc(C(=O)NNC(=S)NCC3CCCO3)cc2C1 (stereo unspecified),,"inconclusive: 89.1 µM [inhibitor, single point]"
Cc1ccc(C(=S)N2CCN(Cc3ccccc3)CC2)cc1,,"inconclusive: 11.2 µM [inhibitor, full curve, poor fit]"
COc1ccc2[nH]c(CN3CCC(n4nccc4NC(=O)C4CC4)CC3)c(C)c2c1,inactive: -0.636% [at 102 µM],
CCCc1cc(C(=O)NCc2ccco2)no1,,"inconclusive: 89.1 µM [inhibitor, single point]"
CCOC(=O)c1ccc(NC(=O)CN2CCc3ccccc3C2)cc1,,"inconclusive: 17.8 µM [inhibitor, partial curve]"
O=C1c2ccccc2NC(c2ccc(-c3ccccc3F)o2)N1O (stereo unspecified),inactive: 1.7% [at 0.501 µM],
CSCCC(NC(=O)c1cccc(C)c1)C(=O)OCC(=O)Nc1c(C)nn(-c2ccccc2)c1C (stereo unspecified),inactive: 22.6% [at 12.7 µM],
COc1ccccc1NC(=O)CSc1oc(-c2ccccc2)nc1S(=O)(=O)c1ccccc1,,"inconclusive: 10 µM [inhibitor, partial curve, poor fit]"
NC(=O)c1ccc(NC(=O)CCc2nc3ccccc3s2)cc1,,active: 35.5 µM
Cc1cccc2c(SCC(N)=O)nc(-c3ccccc3)nc12,inactive: 18.2% [at 102 µM],
NCCCCc1cn(CC(=O)N2CCNCC2)nn1,inconclusive: -70.8% [inhibitor],
CCCCn1c(SCc2nc3ccccc3s2)nc2cc(S(N)(=O)=O)ccc21,,"inconclusive: 79.4 µM [inhibitor, single point]"
CCOc1ccc(S(=O)(=O)N2CCC(C(=O)N3CCCCCC3)CC2)cc1Cl,inactive: 22.5% [at 102 µM],
CCOP(=O)(OCC)C(NC(=O)Nc1ccc(C)c(Cl)c1)c1ccccc1 (stereo unspecified),inactive: 14.7% [at 102 µM],
O=C(CSC1=Nc2ccccc2N=C(c2ccc(F)cc2)C1)Nc1ccc(Cl)cc1,inactive: -23.2%,
O=C(NCc1ccncc1)c1ccc(NS(=O)(=O)c2cccc([N+](=O)[O-])c2)cc1,,"inconclusive: 44.7 µM [inhibitor, partial curve]"

SMILES,"activity, negative = inhibition",Potency
COC(=O)C1=C(N)Oc2cc(C)[nH]c(=O)c2C1c1ccncc1 (stereo unspecified),,"inconclusive: 89.1 µM [inhibitor, partial curve, poor fit]"
CCOc1ccc(S(=O)(=O)n2ccnc2)c2ccccc12,,"inconclusive: 89.1 µM [inhibitor, single point]"
O=C(O)/C(=C\c1cccc(F)c1)c1ccc(S(=O)(=O)N2CCCCC2)s1,,active: 56.2 µM
COc1cc(OC)c(OC)cc1CN1CCN(c2ccc(F)cc2)CC1,,active: 28.2 µM
O=C(CN1C(=O)c2ccccc2S1(=O)=O)Nc1ncc([N+](=O)[O-])s1,inconclusive: -97.3% [inhibitor] [at 2.33 µM],
Cc1[nH]c2ccc(F)cc2c1CCN(Cc1ccncc1)C(=S)Nc1cccc(F)c1,,"inconclusive: 1.41 µM [inhibitor, full curve, poor fit]"
S=c1[nH]nc(COc2ccccc2)n1/N=C/c1ccc(Br)cc1,,active: 20 µM
CCCC[n+]1c(C)sc2cc(OC)ccc21,,"inconclusive: 0.891 µM [inhibitor, full curve, poor fit]"
O=C(Cc1cccs1)Nc1ccc(Cl)cc1,inactive: -2.02%,
Cc1ccccc1-c1nnc(SCC(=O)NC2CCCCC2)o1,inactive: -0.11%,
COCCOCC(O)CN1CCN(c2ccccc2)CC1 (stereo unspecified),,"inconclusive: 2.51 µM [inhibitor, partial curve, poor fit]"
Cc1c(-c2ccccc2)nc2ccccc2c1C(=O)OCC(=O)Nc1ncc(C(F)(F)F)cc1Cl,,"inconclusive: 25.1 µM [inhibitor, single point]"
Cn1cccc1/C=N\NC(=O)c1cncc(Br)c1,,"inconclusive: 89.1 µM [inhibitor, single point]"
CC1CCCCN1C(=O)CSc1nnc(-c2ccc(Cl)s2)o1 (stereo unspecified),,"inconclusive: 50.1 µM [inhibitor, partial curve]"
COc1ccc(C2CC(c3ccc4ccccc4c3)=NN2C(=O)CSc2ncccn2)cc1 (stereo unspecified),,active: 39.8 µM
O=C(O)c1ccc2c(=O)n(Cc3ccccc3)c(SCc3ccc([N+](=O)[O-])cc3)nc2c1,,"inconclusive: 79.4 µM [inhibitor, single point]"
COC(=O)c1c(NC(NC(=O)C(C)(C)C)C(Cl)(Cl)Cl)sc2c1CCC2 (stereo unspecified),,"inconclusive: 28.2 µM [inhibitor, single point]"
Cc1ccc(S(=O)(=O)c2nc(-c3ccco3)oc2SCc2ccc(F)cc2)cc1,,"inconclusive: 14.1 µM [inhibitor, partial curve, poor fit]"
